# The campaign covered roughly 350,000 compounds. About 9,900 (2.8%) were called active. Inconclusive results, whose numbers are uncertain, are shown with a selection of clear calls. Calls come from the whole dose curve; as a rule, active = well fitted activation curve with a large enough effect; inconclusive = small, poorly fitted or top-dose-only effect; inactive = no such curve, though single readings can be large or run the other way. Potencies of inconclusive entries are left out as doubtful fits.
# Assay: A quantitative high throughput screen for small molecules that induce DNA re-replication in MCF 10a normal breast cells. For activity, positive = re-replication: % of control where 0% means no effect. Note: nearly all actives have a fitted effect of over 50% in size.
# Settings: MCF 10A DNA re-replication, Hoechst nuclear intensity, 48 h; activity, positive = re-replication: at 46.1 µM (top of the series)
# Potency is the fitted concentration of half-maximal effect; tags give direction and shape of the fitted curve.
SMILES,Potency,"activity, positive = re-replication"
C=C(C)/C=N/NC(=S)Nc1ccc(S(=O)(=O)N2CCOCC2)cc1,inactive,
NC(=S)N/N=C/c1ccc(-c2ccccc2)o1,active: 0.731 µM,
O=c1nccc(NCc2ccco2)[nH]1,,inactive: 696% [at 0.0737 µM]
COC(=O)c1ccc(-c2csc(NC(=O)c3c(C)noc3C)n2)cc1,"inconclusive [activator, single point]",
Clc1ccc2c(c1)[C@H]1OCC[C@H]1[C@@H](c1ccco1)N2,inactive,
CCOc1ccc(C(=O)Nn2cnnc2)cc1OCC,"inconclusive [activator, single point]",
Cc1ccc(SCCC(=O)N2CCN(S(=O)(=O)c3ccccc3)CC2)cc1,"inconclusive [activator, single point]",
O=C(c1ccccc1)N1CCSC1=S,"inconclusive [activator, partial curve]",
Cc1ccc(C(C)C)c(OCC(=O)NNC(=O)Cc2ccc(S(=O)(=O)N3CCOCC3)s2)c1,"inconclusive [activator, single point]",
CCN(CC)c1ccc(Nc2nc(N3CCOCC3)c3ccccc3n2)cc1,"inconclusive [activator, single point]",
O=C1[C@H](Cc2ccccc2)NCCCC[C@H](c2ccco2)N1Cc1ccccc1,"inconclusive [activator, single point]",
CC(/C=N\N1CCN(Cc2ccc(C)cc2)CC1)=C\c1ccccc1,"inconclusive [activator, full curve]",
CC1(C)C(=O)NCCN1C(=O)CSc1nccc(-c2ccc(Br)cc2)n1,"inconclusive [activator, partial curve]",
Cc1cc(C(=O)NC2CCCc3c2cnn3-c2cccc(C)c2C)n(C)n1 (stereo not given),inactive,
CCOC(=O)C(=CNc1cc(C)nn1-c1ccc(Cl)cc1)C(=O)OCC,"inconclusive [activator, partial curve, poor fit]",
Cc1ccc(-c2cc(-c3ccc4c(c3)OCO4)c(C#N)c(N)n2)o1,active: 20.6 µM,
CCC(=O)N1CCc2cc(S(=O)(=O)CCC(=O)Nc3ccc(CC)cc3)ccc21,"inconclusive [activator, partial curve, poor fit]",
Cc1ccc2c(CNCc3ccccc3)cc(=O)oc2c1,active: 11.6 µM,
Cc1cc(C)cc(NC(=O)[C@H](NC(=O)[C@@H]2Cc3ccccc3CN2)c2ccccc2)c1,inactive,
CCCCN(C)C(=O)C1CCC(CNS(=O)(=O)c2ccc3c(c2)CC(C)N3C(=O)C2CC2)CC1 (stereo not given),"inconclusive [activator, single point]",
